# Source: publication PMC4663108 (Journal of molecular biology, 2015)
# B1: […]Ec D366C (natural protein)
# chain: not shown
# B2: […]Ec K354C (natural protein)
# chain: not shown
# B3: […]Ec R267C (natural protein)
# chain: not shown
# B4: […]Ec Q358C (natural protein)
# chain: not shown
# B5: Hsp90Ec K354C (natural protein)
# chain: not shown
# B6: Hsp90Ec E269C (natural protein)
# chain: not shown
# B7: Hsp90Ec R355C (natural protein)
# chain: not shown
# B8: Hsp90Ec R355L (natural protein)
# chain: not shown
# B9: Hsp90Ec G270A/K271A (natural protein)
# chain: not shown
# B10: Hsp90Ec R267C (natural protein)
# chain: not shown
# Target: T25-DnaK (E. coli, UniProt P0A6Y8)
# Assay: two-hybrid
row,Binder,β-galactosidase level relative to wild type
1,B1,~80 % of wild type
2,B2,~80 % of wild type
3,B3,~80 % of wild type
4,B4,~80 % of wild type

# Target: DnaK D45C-biotin (E. coli, UniProt P0A6Y8, D45C, biotin (labeled with a 20-fold excess of Maleimide-PEG11-Biotin))
# Assay: pull-down
row,Binder,binding result
1,B5,binds

# Target: T1, DnaK wild type (E. coli, UniProt P0A6Y8, labeled with 3H (740 cpm/pmol) in the ultrafiltration assay)
# Assay: ultrafiltration assay
row,Binder,Kd
1,B6,850 nM
2,B7,1490 nM
3,B8,1790 nM
4,B9,1530 nM

# Target: T1, DnaK wild type
# Assay: cell-based or functional assay
row,Binder,"rate of reactivation of heat-denatured luciferase with DnaK, CbpA and GrpE"
1,B6,~50 % of wild type
2,B10,~50 % of wild type
3,B5,~50 % of wild type
